Structures are written as SMILES. Among all 150,000 compounds or so, about 540 (0.36%) showed an effect of 50% or more. This is one part of the list.

The assay concerns Plasmodium falciparum. As to the kind of experiment: Primary screen in NF54 nanoGlo assay, in single point, at 2uM, 72h; a lower Z score goes with more inhibition. In kind it is functional, Erythrocyte. To be noted: timepoint 72 hour.
`CC(C)n1cnc(C(=O)N[C@H]2C[C@H](c3cccc(F)c3)C2)c1`: the “% Inhibition” value is 0% and the Z score turned out to be 0.
`Cn1cc(-c2nnc(NCc3cccc(OC4CC4)c3F)o2)cn1`: the “% Inhibition” value was 4% and the Z score was -0.63.
In the case of `Cc1cnn(-c2cccc(N[C@H](C(=O)N3CCOCC3)C(C)C)n2)c1`, the “% Inhibition” value is -2% and the Z score was 0.39.
With `C=CCC[C@@H](CN(C)C)Oc1ccc(C(=O)N2CCOCC2)o1`, the “% Inhibition” value is 0% and the Z score was 0.09.
Consider `CC[C@H]1COCCN1C(=O)c1cccc(-c2ccc3cc[nH]c3c2)c1`, for which the “% Inhibition” value is given as -3% and the Z score amounted to 0.59.
On to `c1ccc(OCCCCN2CCOCC2)c(CN[C@H]2CCNC2)c1`, for which the “% Inhibition” value is on record as -5% and the Z score worked out at 1.01.
With `O[C@@H](CNC1CCC2(CC1)COC2)c1cccc(F)c1`, the “% Inhibition” value came to 8% and the Z score was -1.16.
As to `COc1cccc(-c2cc(-c3c(C)noc3C)nc(N3CCN(C)CC3)n2)c1`, the “% Inhibition” value was -12% and the Z score came to 2.45.
Consider `c1cnc2c(-c3ccc4[nH]ncc4c3)cccc2c1`, for which the “% Inhibition” value was -4% and the Z score turned out to be 0.61.
With `CN1CCN(C(=O)CN2CCC(N(C)C(=O)C3CCC(C4CC4)N3)CC2)CC1` (stereo not given), the “% Inhibition” value is listed as -5% and the Z score worked out at 0.98.
For the molecule `COc1ccc(CO)c(-c2cnc(C3CCOCC3)o2)c1`, the “% Inhibition” value was -7% and the Z score worked out at 1.29.
As for `CC1(C)CN(C(=O)C(C)(C)S(C)(=O)=O)C[C@@]2(CCOC2)O1`, the “% Inhibition” value is given as -8% and the Z score is reported as 1.36.
Take `OC1(c2cccnc2)CCN(C2CCN(c3ccc(F)c(F)c3)CC2)CC1`: the “% Inhibition” value is -11% and the Z score is reported as 1.84.
As to `Cc1[nH]c2ncnn2c(=O)c1CC(=O)O`, the “% Inhibition” value is recorded as -4% and the Z score is 0.59.
In the same order, the values of `COc1ccc2c(CN3CCN(c4ccc(Cl)cn4)CC3)n[nH]c2c1` are 1% and -0.11.
With `CC(C)c1ccc([C@@]2(C)Nc3ccccc3-c3nc(-c4cccc(F)c4)nn32)cc1`, the “% Inhibition” value is -8% and the Z score stood at 1.26.
As for `CC(C)[C@H]1NC(=O)[C@H](Cc2ccccc2)Nc2cc(nc(NCc3cccnc3)n2)CCNC(=O)[C@H](C)NC1=O`, the “% Inhibition” value is listed as 4% and the Z score is reported as -0.74.
Take `Cc1nnc(OCC2CC(F)(F)C2)c2ccccc12`: the “% Inhibition” value is recorded as -15% and the Z score was found to be 3.02.
For `Cc1nc(-c2c(-c3ccccc3)ncn2CCN2CCCC[C@@H]2CO)c[nH]1`, the “% Inhibition” value came to 1% and the Z score is recorded as -0.32.
`Cc1cccn2cc(C(=O)N3CCCN(c4ncnc5[nH]ccc45)CC3)nc12`: the “% Inhibition” value is 15% and the Z score is -2.71.

(Values after ChEMBL document CHEMBL5308541, “MAIP: An Open-Source Tool to Enrich High-Throughput Screening Output and Identify Novel, Druglike Molecules with Antimalarial Activity” (ACS Med Chem Lett, 2023).)
